PubChem BioAssay AID686978 (National Center for Advancing Translational Sciences (NCATS), 2013)
In all, about 420,000 compounds went through this assay and about 64,000 (15%) were called active. Inconclusive results, whose numbers are uncertain, are shown with a selection of clear calls. Calls follow the shape of the dose curve; as a rule, active = well fitted inhibition curve with a large enough effect; inconclusive = small, poorly fitted or top-dose-only effect; inactive = flat fitted curve, though single readings scatter. No potency is given beside an inconclusive call; the fits are too rough.

assay: qHTS for Inhibitors of human tyrosyl-DNA phosphodiesterase 1 (TDP1): qHTS in cells in absence of CPT; settings: DT40 Tdp1-/- hTDP1 cells, no CPT, ATP luminescence, 48 h; activity change, negative = growth inhibition: at 46.2 µM (top of the series) unless noted; also: nearly all actives have a fitted effect of over 55% in size
Method in brief: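 Growth kinetics read by CellTiter-Glo luminescence after ≥48 hr at 37 °C. Cells: DT40 Tdp1-/- stably carrying human TDP1, 400 per well, compound exposure in the absence of CPT (DMSO vehicle).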
% is scaled to controls: 0 for no effect and ±100 for the full control effect; potency is read from the fitted curve at half-maximal effect; tags tell the direction and shape of the fitted curve.

Structure (SMILES) | Potency | activity change, negative = growth inhibition
CCn1c(SCC(=O)Nc2ccc(C(C)=O)cc2)nc2nc3c(cc2c1=O)CCCC3 | inconclusive [inhibitor, single point] | 
COc1ccc(Cn2c(SCC(=O)N(C)Cc3ccccc3)nc3ccccc32)cc1 | inconclusive [inhibitor, single point] | 
O=C(Nc1ccc2c(c1)OCCO2)C(CCc1ccccc1)N1CCN(C/C=C/c2ccccc2)CC1 (centres undefined) | inconclusive [inhibitor, single point] | 
Cc1ccc(NC(=O)c2cc(S(=O)(=O)NCCc3ccc(Cl)cc3)ccc2F)cc1 | active: 13 µM | 
CCN(Cc1ccccc1)S(=O)(=O)c1ccc(C(=O)Nc2nnc(-c3ccccc3OC)o2)cc1 | active: 8.2 µM | 
Cc1ccc(OCC(=O)NCCCNC(=O)c2ccccn2)cc1 |  | inconclusive: -23.3% [inhibitor]
COc1cccc(C(O)c2nc3ccccc3n2C(C)C)c1OC (centres undefined) |  | inactive: -12.3%
COc1ccc(N2CCN(C(=O)COC(=O)CCOc3ccc(C)cc3)CC2)cc1 | inconclusive [inhibitor, single point] | 
Cc1ccc(NC(=O)CC2S/C(=N/N=C3\CCCc4ccccc43)NC2=O)cc1 (centres undefined) | inconclusive [inhibitor, single point] | 
Cc1ccc(S(=O)(=O)N2CCCCC2)cc1NC(=O)C1=NN(c2ccccc2)C(=O)CC1 | inconclusive [inhibitor, single point] | 
O=C(Nc1cnc(N2CCN(c3ccccc3)CC2)c(C(=O)O)c1)c1cccs1 |  | inactive: -20.6%
CCCCOCCCNC(=O)C[C@@H]1C[C@@]2(C(=O)OC)CCCCC=C2N(Cc2ccc3c(c2)OCO3)C1=O | inconclusive [inhibitor, single point] | 
Cc1cccc(-c2noc(-c3ccc(N4CCOCC4)c([N+](=O)[O-])c3)n2)c1 | active: 18.4 µM | 
OCC1(Cc2cccc(Cl)c2)CCCN(Cc2cn[nH]c2C2CCCCC2)C1 (centres undefined) | inconclusive [inhibitor, single point] | 
Cc1cccc(NC(=O)c2ccc(C3SCC(=O)N3CCc3ccccc3)cc2)c1 (centres undefined) | inconclusive [inhibitor, single point] | 
CC(C)(C)CNc1cc(N2CCOCC2)ccc1[N+](=O)[O-] | inconclusive [inhibitor, single point] | 
Cc1ccc(/C=N/NC(=O)c2nnn(-c3nonc3N)c2CN(C)c2ccccc2)s1 |  | inactive: -14.1%

Structure (SMILES) | Potency | activity change, negative = growth inhibition
CCCCCCCCN1C(=O)[C@H](CC(=O)NCc2ccccc2)C[C@@]2(C(=O)OCC)CCC=C12 | inconclusive [inhibitor, single point] | 
C=CCn1c(Sc2ccccc2)nc2c1c(=O)[nH]c(=O)n2C |  | inactive: -11.9%
c1c2c(cc3sc(N4CCOCC4)nc13)OCO2 |  | inconclusive: -33.3% [inhibitor]
CC1=C(C(=O)N2CCN(c3cccc(Cl)c3)CC2)C2(CCCCC2)OC1=O | active: 20.6 µM | 
COC(=O)[C@H](Cc1ccc(O)cc1)NC(=O)Cn1ccc(NC(=O)OCc2ccccc2)nc1=O |  | inactive: 7.51%
CCOC(=O)C1CCN(c2nc3c(S(=O)(=O)c4ccc(C)c(C)c4)nnn3c3ccc(Cl)cc23)CC1 | inconclusive [inhibitor, single point] | 
Cn1ccnc1C(OC(=O)c1ccc(Cl)cc1)C(F)(F)F (centres undefined) |  | inconclusive: -32.1% [inhibitor]
CSc1ccc(C(=O)C2CCCN(C(=O)c3cccc(N4CCOCC4)c3)C2)cc1 (centres undefined) | inconclusive [inhibitor, single point] | 
CCCCNC(=S)Nc1ccccc1Cc1ccccc1 | inconclusive [inhibitor, single point] | 
COc1ccc(-c2csc(Nc3cccc(C)n3)n2)cc1OC | active: 25.9 µM | 
COc1ccc(NC(C)C(=O)Nc2ccc(C(C)(C)C)cc2)cc1Cl (centres undefined) | inconclusive [inhibitor, single point] | 
C/C(=N\NS(=O)(=O)c1ccc(Cl)c([N+](=O)[O-])c1)c1cc2ccccc2o1 | inconclusive [inhibitor, full curve] | 
O=C(C1=C[C@@H](c2ccc(C(F)(F)F)cc2)C[C@@H](OCCCCO)O1)N1CCN(Cc2ccc3c(c2)OCO3)CC1 | inconclusive [inhibitor, single point] | 
COc1cccc(-c2cnc(-c3ccncc3)nc2C2CCN(C(=O)Cc3csc(C)n3)CC2)c1 | inconclusive [inhibitor, single point] | 
CCOc1cc2c(C#N)c(N(CC)CC)nc(N)c2c(N)n1 | active: 16.4 µM | 
C=CCOc1ccc(C(=O)O)cc1Cl |  | inactive: -11.4%
O=C(NCc1ccccc1)C1=C[C@H](c2ccc3c(c2)OCO3)C[C@H](OCCCCO)O1 | inconclusive [inhibitor, single point] | 
